Measured values from PubChem BioAssay (NCI).
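Step 1: Grow cells in 96-well plates. Step 2: Expose to compound for 48 hours at 5 concentrations. Step 3: Interpolate endpoints linearly; if unreached, use highest concentration. At the GI50, growth is halved.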 Certain results were filed several times, with different values. They are shown here; other results are not. An entry can have further records. For some assays here: Results that share an entry repeat one measurement (runs, samples, wells, individuals or studies). Brackets tell where a record comes from. A, B and so on number the origins entry by entry.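 TGI denotes the concentration required for complete inhibition of growth.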 For some assays here: The tests behind the records often covered other concentration ranges, not given here; some values may only mark the edge of a range.

Key:
Assay in all cases: NCI-60 cell line screen, 48 h
[1] = tested on: SR leukemia
[2] = tested on: SK-MEL-2 melanoma
[3] = tested on: NCI-H23 lung
[4] = tested on: DU-145 prostate
[5] = tested on: MDA-MB-231 breast
[6] = tested on: NCI-H522 lung
[7] = tested on: MDA-MB-435
[8] = tested on: KM12 colon
[9] = tested on: SK-MEL-5 melanoma
[10] = tested on: HT29 colon
[11] = tested on: SNB-75 CNS
[12] = tested on: OVCAR-3 ovarian
[13] = tested on: CAKI-1 renal
[14] = tested on: A498 renal
[15] = tested on: SF-295 CNS
[16] = tested on: CCRF-CEM leukemia
[17] = tested on: SF-268 CNS

## O=C(Nc1cc(C(F)(F)F)cc(C(F)(F)F)c1)c1cc(Cl)ccc1O
[1]
  TGI: 956 nM [sample A, mean of 2 tests] and > 100 µM [sample B, mean of 2 tests]

## CCOC(=O)N[C@H]1CCc2cc(OC)c(OC)c(OC)c2-c2ccc(SC)c(=O)cc21
[2]
  TGI: 8.17 µM [sample A] and > 100 µM [sample B]
[3]
  TGI: 1.16 µM [sample A] and > 100 µM [sample B]
[4]
  TGI: < 10 nM [sample A] and > 34.9 µM [sample B]
[5]
  GI50: > 100 µM [sample A, 1 test] and < 10 nM [sample B, mean of 2 tests]
  TGI: > 100 µM [sample A, 1 test] and 7.65 µM [sample B, mean of 2 tests]
[6]
  TGI: < 10 nM [sample A] and > 100 µM [sample B]
[7]
  TGI: 12.3 µM [sample A] and < 10 nM [sample B]
[8]
  TGI: 258 nM [sample A] and 30.1 µM [sample B]
[9]
  TGI: 271 nM [sample A] and 13.7 nM [sample B]
[10]
  TGI: 2.67 µM [sample A] and > 100 µM [sample B]
[11]
  TGI: 9.3 µM [sample A] and > 100 µM [sample B]
[12]
  TGI: 1.56 µM [sample A] and < 19.5 nM [sample B]
[13]
  TGI: 6.49 µM [sample A] and > 100 µM [sample B]
[14]
  TGI: 2.45 µM [sample A] and < 19.1 nM [sample B]
[15]
  TGI: < 10 nM [sample A] and > 100 µM [sample B]

## CCCC(=O)Nc1cn(COC)c(C(=O)N2C[C@@H]3C[C@]34C2=CC(=O)c2[nH]cc(C)c24)n1
[16]
  TGI: 3.59 µM and > 100 µM

## CNc1cc2c(c3ccccc13)C(CCl)CN2C(=O)c1cc2cc(OC)c(OC)c(OC)c2[nH]1 (stereo not given)
[4]
  TGI: 3.98 nM and 100 nM
[5]
  TGI: 169 nM and 10.8 nM
[17]
  TGI: 5.62 nM and 1.22 µM
